SMILES strings stand for the structures. Values joined by “and” are separate entries in the source; they are usually repeats but may differ in a detail not shown here. Equal entries are not always repeated.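 Method: 48-hour compound exposure of cells in 96-well plates, five concentrations, linear interpolation of endpoints. GI50: concentration for 50% inhibition of growth. TGI denotes the concentration required for complete inhibition of growth.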

This assay concerns NCI-H322M lung. Briefly: growth of human tumour cells (NCI), 48 h.

Turning to `CCOC(=O)c1sc(-c2ccc(OS(=O)(=O)C[C@]34CCC(CC3=O)C4(C)C)c(C=O)c2)nc1C`, the GI50 is 1.52 µM and the TGI is greater than 50 µM.
Compound `CO[C@H]1/C=C/O[C@@]2(C)Oc3c(C)c(O)c4c(O)c(c(/C=N/N5CCN(C)CC5)c(O)c4c3C2=O)NC(=O)/C(C)=C\C=C\[C@H](C)[C@H](O)[C@@H](C)[C@@H](O)[C@@H](C)[C@H](OC(C)=O)[C@@H]1C` returned a TGI greater than 100 µM.
On the same count and under the same terms, to `O=c1[nH]ncc2[nH]c3c4ccccc4ccc3c12` belongs greater than 100 µM; to `CCC(C)C(N)C(=O)N/N=C\c1c2c(nc3ccccc13)-c1cc3c(c(=O)n1C2)COC(=O)[C@]3(O)CC` (some centres undefined), greater than 100 µM; to `CCOC(=O)c1sc2c(c1OC(=O)c1cc(OC)c(OC)c(OC)c1)c(=O)n(-c1ccccc1)c(=S)n2-c1ccccc1`, greater than 100 µM.
Still for that read-out and setting: to `CC(=O)C(C(=O)c1ccc(C)cc1)[C@H]1OC(C)(C)O[C@H]1[C@H]1COC(C)(C)O1` (some centres undefined) belongs 15.7 µM; to `O=Cc1ccc(OC[C@H]2COC(=O)N2)cc1`, greater than 100 µM.
Compound `C=CC(C)(C)n1cc(C2=C(O)C(=O)C(c3cn(C(C)(C)C=C)c4ccccc34)=C(O)C2=O)c2ccccc21` displayed a TGI of 16.5 µM.
As for `COc1ccc2c(c1)C(=O)/C(=C/c1cccc(OCC(=O)Nc3nc(C)c(C)s3)c1)O2`, the GI50 is 18.9 µM and the TGI came to 34.1 µM.
Take `CC1(C)OC(=S)N(c2ccccc2)C12C=Cc1cc3ccccc3nc1S2` (centres undefined): the TGI is greater than 100 µM.
Consider `Cc1cc(CCl)c(C)cc1CCl`, for which the GI50 was 1.63 µM and the TGI is 3.48 µM.
`COc1c2c(nc3ccccc13)-c1cc(C(CC(=O)OC(C)(C)C)C(=O)OC(C)C)c(CO)c(=O)n1C2` (centres undefined): the TGI is greater than 100 µM.
Compound `CC(/C=C/C(O)=C1/C(=O)CNC1=O)=C\[C@@H](C)[C@H]1O[C@@]2(C)O[C@H](C(=O)[C@@H]3O[C@@]32C)[C@@H]1C` showed a TGI of 33.6 µM.
Still for that read-out and setting: for `Nc1ccc(-c2nc3ccc(F)cc3s2)cc1Cl` the value was greater than 100 µM.
On to `NC(=O)c1cccnc1`, for which the GI50 was greater than 100 µM and the TGI is greater than 100 µM.
For `COc1ccc(C(=O)c2sc3nc(-c4ccccc4OC)ccc3c2N)cc1OC`, the GI50 is 44 µM and the TGI is greater than 100 µM.
The compound `COc1ccc(-c2oc3cc(OC)c(OC)c(O)c3c(=O)c2OC)cc1` returned a TGI greater than 100 µM.
The same measure, in the same setting: for `COC(=O)C1Cc2c(OC)ccc(OC)c2C(O)C1C(=O)OC` (centres undefined) the value was greater than 100 µM; for `CCC1=CCN(c2cc(C)ccn2)OC1c1ccccc1` (centres undefined), greater than 100 µM.
On the same count and under the same terms, to `O=C(Cn1cc(Br)c(=O)[nH]c1=O)c1ccc(-c2ccccc2)cc1` belongs greater than 100 µM.
With `COc1ccc(-c2cnnn2-c2nonc2-n2cccc2)cc1OC`, the GI50 was 8.97 µM and the TGI is greater than 100 µM.
Taken in the same sequence, the figures for `COc1cc(F)ccc1-c1cc(Nc2cc(CS(C)(=N)=O)ccn2)ncc1F` (centres undefined) were 0.0783 µM and greater than 100 µM.
Consider `CC1(C)CC(=O)c2c(nc3c(ccc4ccccc43)c2-c2ccc(NC(=O)CCC(=O)Nc3ccc(-c4c5c(nc6c4ccc4ccccc46)CC(C)(C)CC5=O)cc3)cc2)C1`, for which the TGI is greater than 100 µM.
The same measure, in the same setting: to `Nc1ccccc1C#CC(=O)c1cccc(C(F)(F)F)c1` belongs 33.9 µM; to `CN(C)N1C(=O)SCC(c2ccccc2)(c2ccccc2)C1=O`, greater than 100 µM; to `c1ccc2c(c1)NCc1cc3ccccc3nc1O2`, greater than 100 µM.
Same read-out and setting: to `N#[N+]c1c([O-])c2ccccc2c2ccccc12` belongs greater than 100 µM; to `CCOC(=O)C(=CNc1ccc(N(C2=NCC(C)S2)c2ccc(F)c(Cl)c2)cc1)C(=O)OCC` (centres undefined), 67.4 µM.
On the same count and under the same terms, for `O=C1C(CO)=C[C@H](O)[C@H]2O[C@@H]12` the value was 327 µM; for `COc1cc(/C=N/N=C(\N)NO)cc(OC)c1OC`, greater than 100 µM.
`C/C(=C(/c1ccccc1)c1ccc(OCC(O)CNCCN2CCOCC2)cc1)c1ccccc1` (centres undefined): the GI50 is 2.81 µM and the TGI amounted to 10.4 µM.
`CCCCCCNCCCNc1c2cc(OC)ccc2nc2cccc([N+](=O)[O-])c12`: the GI50 was 0.224 µM; the TGI is 0.232 µM and 1.16 µM.
As to `CC12CC(=O)Nc3ccccc3N1C(c1ccccc1)=NO2` (centres undefined), the TGI is greater than 100 µM.
`Cc1nc2ccc(S(=O)(=O)NS(=O)(=O)c3ccc(-c4ccccc4)cc3)cc2c(=O)n1NS(=O)(=O)c1ccc(-c2ccccc2)cc1` gave a TGI greater than 100 µM.
`CCOc1cc(/C=C/C(=O)C(C(=O)/C=C/c2ccc(OC(=O)CNc3nc4ccccc4[nH]3)c(OCC)c2)C(=O)CNc2nc3ccccc3[nH]2)ccc1OC(=O)CNc1nc2ccccc2[nH]1`: the GI50 is 7.3 µM and the TGI stood at 20.9 µM.
Take `CCOC(=O)c1cn2c(n1)sc1cc(OC)ccc12`: the TGI was greater than 100 µM.
The same measure, in the same setting: for `O=c1[nH]nc(-c2ccccc2)n1/N=C/c1ccccc1O` the value was greater than 100 µM.
Regarding `Cc1cccc2[nH]c3c(c(O)cc4[nH]c5cccc(C)c5c(=O)c43)c(=O)c12`, the TGI is greater than 10 µM.
For the compound `Cc1ccc(S(=O)(=O)CNC(=O)C(O)(O)C(F)(F)F)cc1`, the TGI was greater than 100 µM.
On to `COc1cc(OCc2cccc(-c3ccccc3)c2C)cc(OC)c1CN1CCCCC1C(=O)NCCOCCOCCN` (centres undefined), for which the GI50 was 3.19 µM and the TGI was found to be 13 µM.
`N#CCCN(CCC#N)c1ccc(/C=C2\N=C(c3ccccc3)N(c3ccc(C(=O)O)cc3)C2=O)cc1` showed a TGI greater than 100 µM.
`COc1cc([C@@H]2c3cc4c(cc3[C@H](OC(C)=O)[C@H]3COC(=O)[C@@H]23)OCO4)cc(OC)c1OC`: the GI50 is 3.14 µM and the TGI is greater than 100 µM.
In turn, `COc1ccc(-c2c(-c3ccc(OC)cc3)n3c(=O)n(C)c(=O)n23)cc1` returned a TGI greater than 100 µM.
Consider `O=C1c2cccnc2-c2nc(-c3cccnc3)cc3c2c1nc1ccccc13`, for which the GI50 is 13 µM and the TGI was 35.5 µM.
Consider `CCOc1ccc(N=C2NC(=O)C(CC(=O)Nc3ccccc3[N+](=O)[O-])S2)cc1` (centres undefined), for which the TGI was greater than 100 µM.
The same measure, in the same setting: to `O=C1/C(=C\c2ccc(Br)cc2)CCCc2ccccc21` belongs 68.2 µM.
In turn, `O=c1oc(-c2ccc(O)cc2)cc2cc(O)ccc12` showed a TGI of 97.7 µM.
Turning to `O=C(CC1(O)C(=O)Nc2ccc(F)cc21)c1ccc(C(=O)NCC2CCC3(CC2)OOC2(CCCCC2)OO3)cc1` (centres undefined), the GI50 was 14.6 µM and the TGI came out at 40.2 µM.
In the same order, the values of `COc1ccc(C2=NC(=O)NC2c2ccc(OC)cc2)cc1` (centres undefined) are 23.8 µM and greater than 100 µM.
As to `COc1cc(-c2ccc(N=Nc3ccc4c(S(=O)(=O)O)cc(S(=O)(=O)O)c(N)c4c3O)c(OC)c2)ccc1N=Nc1ccc2c(S(=O)(=O)O)cc(S(=O)(=O)O)c(N)c2c1O`, the TGI is greater than 100 µM.
Regarding `O=C(/C=C1\Sc2ccccc2N=C1CC(=O)c1ccccc1)c1ccccc1`, the TGI was 94.7 µM.
The same measure, in the same setting: for `C1CCCCC2(CCCCCCCCC3(CCC1)SCCS3)SCCS2` the value was greater than 100 µM; for `COc1ccc(/C=C2\C[C@H]3[C@@H]4CCC5=C/C(=N/O)CC[C@]5(C)[C@H]4CC[C@]3(C)\C2=N\O)cc1`, 81.4 µM.
For the compound `O=C(NN1C(=O)CSC1c1cccc(Cl)c1)C(O)c1ccccc1` (centres undefined), the GI50 was greater than 100 µM and the TGI was greater than 100 µM.
In turn, `CCOC(=O)NC(Nc1cc(Cl)ccc1OC)(C(F)(F)F)C(F)(F)F` returned a TGI greater than 100 µM.
In turn, `CC1(C)OCC(C2OC3OC(C)(C)OC3C2c2ccccc2)O1` (centres undefined) came in with a TGI greater than 100 µM.
`O=C1/C(=C\c2ccco2)Oc2ccccc21` gave a TGI greater than 100 µM.
For `CCCN(CCC)c1ccc(C=O)c(Cl)c1`, the GI50 was greater than 100 µM and the TGI was greater than 100 µM.
For the compound `COc1ccc2oc(S(=O)(=O)N3CC(CCl)c4ccc(N)cc43)cc2c1` (centres undefined), the TGI was greater than 100 µM.
In turn, `N#Cc1c2ccc([N+](=O)[O-])cc2c(=O)n2c1[nH]c1ccc(C(F)(F)F)cc12` displayed a TGI greater than 66.1 µM.
In the case of `CC(=O)c1ccc2c(c1)N(CCCN1CCN(CCO)CC1)c1ccccc1S2`, the GI50 was 2.77 µM and the TGI was determined as 7.99 µM.
Turning to `Cn1c(=O)n(C)c2cc(CNCCNc3ccnc4cc(Cl)ccc34)ccc21`, the GI50 is 24.4 µM and the TGI is greater than 100 µM.
`CC(=O)c1cccc(NC(=O)C(=O)c2c(O)c3ccccc3oc2=O)c1` returned a TGI greater than 100 µM.
Same read-out and setting: for `O=C1NC(Nc2ccccc2)=N/C1=C\c1c(Cl)cccc1Cl` the value was 70.9 µM.
The same measure, in the same setting: for `COc1ccc(/C=C2/C(=O)N(C(=O)c3ccccc3O)N=C2C)cc1` the value was greater than 100 µM.
Take `Cn1cc(-c2cc(-c3cn(C)c4ccc(Cl)cc34)[nH]n2)c2cc(Cl)ccc21`: the GI50 was 5.73 µM and the TGI is greater than 100 µM.
Consider `CCOc1ccc(N=C(NC(=O)c2ccccc2)SC)cc1`, for which the TGI is greater than 100 µM.
Same read-out and setting: to `CC(=O)C(C)C(=O)N1C(=O)N(C)C2(C)N(C)C(=O)NC12C` (centres undefined) belongs greater than 100 µM; to `O=C(c1ccccc1)N1C(=O)N(c2ccccc2)C(=Nc2ccccc2)C1=Nc1ccccc1`, greater than 100 µM.
`N=c1ccc2nc3ccc(N)cc3sc-2c1`: the GI50 is 14.4 µM and the TGI was greater than 100 µM.
`Nc1nccc(NCC2(CO)CC(OCc3ccccc3)C2)n1` (centres undefined): the TGI was greater than 100 µM.
The same measure, in the same setting: for `COc1ccc(/C=C(\NC(=O)c2ccccc2)c2nc3ccccc3[nH]2)cc1OC` the value was greater than 100 µM.
Still for that read-out and setting: to `COc1ccccc1-c1cc(=O)c2cc(C)c(C)c(C(=O)O)c2o1` belongs greater than 100 µM; to `O=C(NN1C(=O)C(Cl)C1c1cccc([N+](=O)[O-])c1)c1ccccc1O` (centres undefined), greater than 100 µM; to `COC(=O)CCC1(CCC(=O)OC)CCCCCCC(CCC(=O)OC)(CCC(=O)OC)C(=O)C1=O`, greater than 100 µM.
On to `O=[N+]([O-])c1ccc(C2ON=C(c3ccccc3)N2C23CC4CC(CC(C4)C2)C3)cc1` (centres undefined), for which the TGI was greater than 10 µM.
The same measure, in the same setting: for `CN/N=C(/c1nc2ccc([N+](=O)[O-])cc2[nH]c1=O)C(O)c1ccc(C(O)/C(=N\NC)c2nc3ccc([N+](=O)[O-])cc3[nH]c2=O)cc1` (centres undefined) the value was greater than 100 µM.
On the same count and under the same terms, for `Cc1cccc2oc3c(c(=O)c12)CC(O)C(C)(C)O3` (centres undefined) the value was greater than 100 µM; for `O=C(Nc1cccc(F)c1)c1cc2ccc(O)cc2oc1=Nc1cccc(F)c1`, 36.8 µM; for `COc1ccc(-c2c(-c3ccccc3)c(C)c3ccccn23)cc1`, greater than 100 µM.
With `CCc1ccc2[nH]c(O)c(C3=Nc4ccccc4C3=O)c2c1`, the TGI came to 33.7 µM.
The same measure, in the same setting: to `COc1ccc(/C=C2\CCC(CCN(C)C)(C3=CCCC3)C2=O)cc1` (centres undefined) belongs 35.5 µM.
The same measure, in the same setting: for `N#CC1=C(N)N(/N=C/c2ccccc2)C(c2ccccc2)C1(C#N)C#N` (centres undefined) the value was 33.1 µM.

(Values after PubChem BioAssay (NCI).)
